# Reference: PubChem BioAssay AID1346428 (National Center for Advancing Translational Sciences (NCATS), 2018)
# Several values for one entry are separate records, joined by “and”; a condition that tells them apart may be missing. Identical values can stand only once. In all, about 48,000 compounds went through this assay and about 1,200 (2.5%) were called active. Not shown: some 2% with an inconclusive outcome.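 How the source made its calls: active means activation of at least 60% and not above a set upper limit (about 1 call in 100 departs from these limits); inconclusive means activation of 40% to 60%, or above that upper limit; inactive means activation under 40%.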 The list shows a part of the results.
# Biological target: Probable G-protein coupled receptor 32 (Homo sapiens) (UniProt O75388)
# Sequence of UniProt O75388 (O75388 whole entry, looked up): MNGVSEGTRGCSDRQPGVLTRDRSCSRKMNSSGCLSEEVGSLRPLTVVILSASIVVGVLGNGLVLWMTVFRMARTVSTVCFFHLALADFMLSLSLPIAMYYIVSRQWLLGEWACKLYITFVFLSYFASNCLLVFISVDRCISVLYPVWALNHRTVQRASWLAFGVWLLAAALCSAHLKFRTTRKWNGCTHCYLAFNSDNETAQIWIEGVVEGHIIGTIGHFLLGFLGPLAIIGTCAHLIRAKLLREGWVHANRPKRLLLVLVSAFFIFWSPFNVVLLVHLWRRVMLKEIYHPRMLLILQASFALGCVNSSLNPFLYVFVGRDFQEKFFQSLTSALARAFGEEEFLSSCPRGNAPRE
# Assay: qHTS for Agonists of Human Resolvin D1 Receptor DRV1; further: 0% is about no effect
# Conditions: CHO-K1 GPR32 beta-arrestin PathHunter luminescence, 90 min; at 76.9 µM; hits give high values; zero percent set by DMSO-only wells
# Method in brief: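 Step 1: seed CHO-K1 GPR32 beta-arrestin cells, 2,500/well, overnight at 37 °C. Step 2: add compounds, 90 min at 37 °C. Step 3: detection reagent, 1 h ambient, then luminescence.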
row,Compound,activation
1,CCOC(=O)c1c(NC(=O)CCCOc2ccc(C(C)(C)C)cc2)sc2c1CCCC2,inactive: 5.53%
2,CCCSc1ncc(Cl)c(C(=O)N(Cc2cccc(Cl)c2)C2CCS(=O)(=O)C2)n1 (centres undefined),inactive: -33.1%
3,CCOc1ccc(-c2cc(NC(=O)Nc3ccc(Cl)cc3)c(C(=O)OC)s2)cc1,inactive: -0.757%
4,CCOC(=O)C1CCCN(S(=O)(=O)c2cc(Br)cc3c2N(C(C)=O)CC3)C1 (centres undefined),inactive: 3.13%
5,Cc1cccc(C(c2sc3nc(-c4ccco4)nn3c2O)N2CCN(c3ccccc3F)CC2)c1 (centres undefined),inactive: 0.392%
6,CCC(=O)N1CCc2cc(S(=O)(=O)NCCC(=O)NCc3ccc(C)cc3)ccc21,inactive: 19.4%
7,COC(=O)c1ccc(NS(=O)(=O)c2ccc3[nH]c4c(c3c2)CCCC4)cc1,inactive: 31.5%
8,O=C(NCCc1ccc(Cl)cc1)c1ccc2c(c1)N(Cc1ccc(F)cc1)C(=O)CS2,inactive: -3.66%
9,O=C1COc2ccc(-c3cc(-c4ccccc4)c4c(n3)-c3ccccc3OC4)cc2N1,inactive: 11.7%
10,Cc1nn(-c2ccccc2)c2sc(C(=O)Nc3ccc(Br)cc3)cc12,inactive: 23%
11,CCc1ccc(NC(=O)[C@H](CSCc2ccccc2)N2Cc3ccccc3C2=O)cc1,inactive: -19%
12,COc1ccc(-c2cc3c(=O)n(CC(=O)Nc4cc(F)ccc4F)ccn3n2)cc1OC,inactive: 8%
13,COc1cccc(CNC(=O)CCCn2ncn3c(cc4occc43)c2=O)c1,inactive: -9.88%
14,CCCn1c(SCC(O)c2ccccc2)nc2ccccc21 (centres undefined),inactive: -7.31%
15,CN1CCN(CCCN2c3ccccc3Sc3ccc(S(=O)(=O)N(C)C)cc32)CC1,inactive: 36.4%
16,CN(C)c1ccc(-c2nc(-c3cccs3)c(-c3cccs3)[nH]2)cc1,inactive: -9.24%
17,Cc1ccc(C(=O)NCC(c2ccco2)S(=O)(=O)c2cccs2)cc1C (centres undefined),inactive: -1.68%
18,COc1cc2nc(Nc3cccc(C)c3)nc(N)c2cc1OC,inactive: 10%
19,Cc1ccc(-c2noc(-c3ccccc3NC(=O)C3CC(=O)N(c4ccc(C)cc4)C3)n2)cc1 (centres undefined),inactive: 8.29%
20,O=c1[nH]c(=O)n([C@H]2CCCO2)cc1F,inactive: -9.28%
21,COc1ccc(NC(=O)CCS(=O)(=O)c2ccc3c(c2)oc(=O)n3C)cc1OC,inactive: -5.37%

row,Compound,activation
1,O=C(Oc1ccc(F)cc1)c1nc(SCc2ccc(F)cc2)ncc1Cl,inactive: 0.504%
2,CC1=C(C(=O)NCc2ccccc2C)C2(CCCCCC2)OC1=O,inactive: -14%
3,COC(=O)c1sc(-c2ccccc2)cc1NC(=O)Nc1ccc(Cl)cc1,inactive: -8.02%
4,CCCCN(Cc1cc2ccccc2[nH]c1=O)C(=O)c1cccc(Cl)c1,inactive: -1.1%
5,COc1ccc2c(c1)CCc1sc(NC(=O)c3ccc(Br)cc3)nc1-2,inactive: -23.3%
6,CC(C)(C)c1ccc(Oc2nc3ccccn3c(=O)c2/C=C(\C#N)c2nc3ccccc3s2)cc1,inactive: 47%
7,CCc1ccc(NC(=O)CC2C(=O)N(c3ccc(C)cc3)C(=O)N2C2CCCC2)cc1 (centres undefined),inactive: -3.37%
8,Cc1cc(C)cc(NC(=O)CSc2nc(=O)[nH]c3c2CCC3)c1,inactive: -9.68%
9,COc1cc(NC(=O)Cn2ccn(-c3cc(C)cc(C)c3)c(=O)c2=O)cc(OC)c1,inactive: -0.641%
10,CC(C)CN(CCNC(=O)c1cn(C)c2ccc(S(=O)(=O)N3CCCCCC3)cc2c1=O)CC(C)C,inactive: -28.4%
11,CN(C)c1oc(-c2ccc(COc3ccccc3)o2)nc1C#N,inactive: 0.546%
12,COc1ccc(N2CCN(S(=O)(=O)CCNC(=O)c3cc(=O)c4ccccc4o3)CC2)cc1,inactive: -14.2%
13,Cc1ccc(NC(=O)C(=O)NCC(c2ccc3c(c2)OCO3)N2CCN(C)CC2)c(C)c1 (centres undefined),inactive: 8.89%
14,Cc1cc(C)cc(NC(=O)CSc2nc3ncccc3[nH]2)c1,inactive: 9.05%
15,Cc1ccc(NC(=O)C(Cc2ccccc2)NS(=O)(=O)c2ccc3c(c2)CCC(=O)N3)cc1 (centres undefined),inactive: -3.49%
16,CS(=O)(=O)c1cccc(-c2nnc(NC(=O)c3ccc4c(c3)OCCO4)o2)c1,inactive: 6.63%
17,CCOC(=O)N1CCC(NC(=O)c2cnn(-c3ccc(C)cc3C)c2C2CCN(C(=O)OC(C)(C)C)CC2)CC1,inactive: -7.23%
18,CC(=O)Nc1cccc(Nc2nc3ccccc3n3c(C)nnc23)c1,inactive: -9.48%
19,O=C(CN1CCCN(Cc2ccc(F)cc2)S1(=O)=O)Nc1ccc2c(c1)OCCO2,inactive: -5.11%
20,CCOc1ccccc1N(C)C(=O)Cn1nc(Cc2ccncc2)c2ccccc2c1=O,inactive: -9.3%
21,CC(=O)c1nn(-c2ccc(OC(F)(F)F)cc2)nc1Nc1ccccc1,inactive: -0.944%

row,Compound,activation
1,CCc1nn(CCCC(=O)NCc2ccc(C)cc2)c(=O)c2cc3occc3n12,inactive: 11%
2,CCCN(CCC)CCCNC(=O)Cn1ncc2c3ccccc3n(Cc3ccccc3F)c2c1=O,inactive: -1.14%
3,COC(=O)c1sccc1S(=O)(=O)N1CCN(c2ccc(C)cc2C)CC1,inactive: 2.93%
4,CCOc1ccc(CNC(=O)C2CCN(C(=O)N3CC(CC)Oc4ccccc43)CC2)cc1 (centres undefined),inactive: -15.2%
5,Cc1c(Cl)cccc1NC(=O)N1CCOc2ccccc21,inactive: -30.1%
6,CC(C)(C)c1ccc(C(=O)NC2(C(F)(F)F)NC(=O)N(CCc3ccccc3)C2=O)cc1 (centres undefined),inactive: 48.1%
7,COc1cccc(NC(=O)CSc2ncc3c(n2)-c2ccc(Cl)cc2N(C)S3(=O)=O)c1,inactive: 4.11%
8,CCCNC(=O)c1ccccc1NC(=O)c1nsc2ccccc12,inactive: -0.473%
9,Cc1ccc(OCC(=O)Nc2ccc3nc(SCC(=O)Nc4ccc(C)cc4C)sc3c2)cc1,inactive: -9.73%
10,Cc1ccc(NC(=O)NCCOCCn2c(=O)oc3ccccc32)cc1C,inactive: 4.99%
11,CCOc1ccc(CNC(=O)c2ccccc2NC(=O)c2nsc3ccccc23)cc1,inactive: -10.6%
12,CCOc1ccccc1NC(=O)C(=O)NCCc1sc2nc(-c3ccc(OC)cc3)nn2c1C,inactive: -18%
13,Cc1ccc(Cn2c(=O)n(-c3ccc(C)cc3)c(=O)c3c2c2cc(C)ccc2n3C)cc1,inactive: -5.7%
14,CCOc1ccccc1NS(=O)(=O)c1ccc2[nH]c3c(c2c1)CCCCC3,inactive: 12.4%
15,COc1ccc(S(=O)(=O)N(CC(=O)Nc2cc(C)ccc2OC)Cc2ccccc2)cc1,inactive: -4.78%
16,COC(=O)c1ccc(NC(=O)CN2CCN(S(=O)(=O)c3ccc(Br)cc3)CC2)cc1,inactive: -16.4%
17,Cc1c(-c2ccc(Cl)cc2)c(=O)oc2c(CN3CCN(CCO)CC3)c(O)ccc12,inactive: -15.4%
18,CCOc1ccc(CCNC(=O)c2cc3c(=O)n(C)c4ccccc4c3n2C)cc1OCC,inactive: -4.27%
19,C[C@@H]1CC(=O)NN=C1c1ccc(NN=C(C#N)C#N)cc1,inactive: -90.4% and inactive: -99.6%
20,CCCN(CCC)CCCNC(=O)C1CCN(c2nc3ccc(CC)cc3s2)CC1,inactive: -8.03%
21,O=C(CSc1cn(CC(=O)N2CCCCC2)c2ccccc12)NCc1ccc(F)cc1,inactive: -14.7%

row,Compound,activation
1,CSc1cccc(NC(=O)C2CCCN(C(=O)c3cnn(-c4ccc(F)cc4)c3-n3cccc3)C2)c1 (centres undefined),inactive: -9.71%
2,N#C/C(=C\c1cccc(F)c1)c1nc(-c2cc3c(ccc4ccccc43)oc2=O)cs1,inactive: 13.6%
3,CCOc1cc(C2c3c(oc4cc(C)cc(C)c4c3=O)C(=O)N2CCO)ccc1O (centres undefined),inactive: -12.5%
4,Cc1ccc(NC(=O)Nc2ccc3nc(N4CCN(C)CC4)cc(C)c3c2)cc1F,active: 93.6%
5,Cc1ccc(-c2nc(SCC(=O)NCC3CCCO3)c3c(=O)n(C)c(=O)n(C)c3n2)cc1 (centres undefined),inactive: 7.8%
6,Cc1cc(OCCn2c(CCNC(=O)C3CCCCC3)nc3ccccc32)ccc1Cl,inactive: -17.5%
7,Cc1ccccc1N1CCN(S(=O)(=O)c2ccccc2)CC1,inactive: -8.58%
8,Oc1c(C(c2ccccc2F)N2CCN(c3ccccc3F)CC2)sc2nc(-c3ccco3)nn12 (centres undefined),inactive: 4.07%
9,CCOC(=O)CSC1=Nc2ccccc2C2=NC(CCC(=O)NCc3ccc(OC)cc3)C(=O)N12 (centres undefined),inactive: -16.2%
10,COc1ccccc1Cn1ccn(Cc2ccc(C)cc2)c(=O)c1=O,inactive: -10.6%
11,COc1ccc(CNC(=O)CCC2N=C3c4ccccc4N=C(SCc4ccccc4F)N3C2=O)cc1 (centres undefined),inactive: 8.53%
12,Cc1cc(C)c(NC(=O)CSc2nccn2-c2cccc(Cl)c2)c(C)c1,inactive: -20.5%
13,CCCc1cc(N2CCN(c3cccc(C)c3C)CC2)n2cnnc2n1,inactive: 26.6%
14,CCOC(=O)C(Cc1ccccc1)NC(=O)CCc1c(C)nc2nc(C)nn2c1C (centres undefined),inactive: 20.4%
15,COc1ccc(NC(=O)c2sc3nc4c(cc3c2N)CCCCCC4)cc1,active: 73.8%
16,COc1cccc(-n2c(-c3ccccc3F)nc3c(cnn3-c3ccc(C)cc3)c2=O)c1,inactive: -3.45%
17,COCCNC(=O)CSc1nc2cc3c(cc2c(=O)n1CCCC(=O)NCc1ccc2c(c1)OCO2)OCO3,inactive: -10.2%
18,Cc1ccccc1OCc1nc2c3cnn(-c4ccccc4F)c3ncn2n1,inactive: -7.7%
19,Cc1ccccc1NC(=O)CSc1nc(-c2ccccc2)cn1-c1ccccc1F,inactive: -31.5%
20,O=C(NC1CCCC1)c1ccc2c(=O)n(Cc3ccccc3)c(SCc3cccc([N+](=O)[O-])c3)nc2c1,inactive: -8.2%
21,COc1ccc(CNC(=O)CSc2ncc3c(n2)-c2cc(Cl)ccc2N(Cc2ccccc2)S3(=O)=O)cc1,inactive: 2.49%
